The densities may have been worked out from excess volumes.
Experiment: xn = mol fraction of the nth substance listed
Settings: 101.3 kPa

CCCCCCCCN1CCCC1=O + CCCC[n+]1ccn(C)c1.F[P-](F)(F)(F)(F)F
mass density [kg/m3]
Settings | 303.15 K | 308.15 K | 313.15 K | 318.15 K | 323.15 K
x2 = 0 | 915.8 | 912.2 | 908.5 | 904.9 | 901.2
x2 = 0.0531 | 939.5 | 935.9 | 932.2 | 928.5 | 924.9
x2 = 0.1034 | 962 | 958.3 | 954.6 | 951 | 947.3
x2 = 0.1513 | 983.5 | 979.7 | 976 | 972.3 | –
x2 = 0.2034 | 1006.8 | 1003 | 999.3 | 995.6 | 991.8
x2 = 0.3009 | 1050.3 | – | 1042.8 | 1039 | 1035.2
x2 = 0.405 | – | 1093.1 | 1089.2 | 1085.4 | 1081.6
x2 = 0.5042 | – | 1137.4 | 1133.5 | 1129.6 | 1125.8
x2 = 0.5996 | 1183.9 | – | – | 1172.1 | –
x2 = 0.6991 | 1228.4 | 1224.4 | 1220.4 | 1216.5 | 1212.5
x2 = 0.8029 | 1274.8 | 1270.8 | 1266.7 | – | 1258.7
x2 = 0.8451 | – | 1289.6 | – | 1281.5 | 1277.4
x2 = 0.8927 | 1315 | 1310.9 | 1306.8 | – | 1298.7
x2 = 0.9513 | 1341.7 | 1337.6 | 1333.4 | 1329.3 | 1325.2

CCCC[n+]1ccn(C)c1.F[P-](F)(F)(F)(F)F + CCCCCCCCN1CCCC1=O
x1 = 1
Settings | mass density [kg/m3]
308.15 K | 1360.4
313.15 K | 1356.2
318.15 K | 1352.1
323.15 K | 1348
